# Results from the supplement of paper PMC8728848.
# Some of the results follow.
# B1: SefD (Salmonella enterica), Q9L6K6 (protein)
# chain: GAYIIRGQNNSAHKLRIRIGGEDWQPDNSGIGMVSHSDFTNEFNIYYFGNGDIPVDTYLISIYATEIEL
# Experiments:
# Test in all cases: glycan array binding signal (z-score within array); higher = stronger binding
# Conditions in all cases: glycan notation: IUPAC condensed, linker removed
# Gal(a1-3)Gal = target: Gal(a1-3)Gal
# Outline: (§1)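 Arrays were curated from the Consortium for Functional Glycomics database, 3228 in total, and kept only where the protein sequence was available. Binding is expressed as a within-array Z-score. This score was averaged across arrays of the same protein sequence at different concentrations or buffers and across linkers, and negative values can be read as non-binding.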
# Gal(a1-3)Gal(b1-3)GlcNAc = target: Gal(a1-3)Gal(b1-3)GlcNAc
# Outline: as §1
# [1] = target: Gal(a1-3)Gal(b1-3)GlcNAc(b1-2)Man(a1-3)[Gal(a1-3)Gal(b1-3)GlcNAc(b1-2)Man(a1-6)]Man(b1-4)GlcNAc(b1-4)GlcNAc
# Outline: as §1
# [2] = target: Gal(a1-3)Gal(b1-3)GlcNAc(b1-3)GalNAc
# Outline: as §1
# [3] = target: Gal(a1-3)Gal(b1-3)[Fuc(a1-4)]GlcNAc(b1-2)Man(a1-3)[Gal(a1-3)Gal(b1-3)[Fuc(a1-4)]GlcNAc(b1-2)Man(a1-6)]Man(b1-4)GlcNAc(b1-4)GlcNAc
# Outline: as §1
# Gal(a1-3)Gal(b1-4)Glc = target: Gal(a1-3)Gal(b1-4)Glc
# Outline: as §1
# Gal(a1-3)Gal(b1-4)GlcNAc = target: Gal(a1-3)Gal(b1-4)GlcNAc
# Outline: as §1
# [4] = target: Gal(a1-3)Gal(b1-4)GlcNAc(b1-3)GalNAc
# Outline: as §1
# [5] = target: Gal(a1-3)Gal(b1-4)[Fuc(a1-3)]GlcNAc
# Outline: as §1
# [6] = target: Gal(a1-3)Gal(b1-4)[Fuc(a1-3)]GlcNAc(b1-2)Man(a1-3)[Gal(a1-3)Gal(b1-4)[Fuc(a1-3)]GlcNAc(b1-2)Man(a1-6)]Man(b1-4)GlcNAc(b1-4)GlcNAc
# Outline: as §1
# Gal(a1-3)GalNAc = target: Gal(a1-3)GalNAc
# Outline: as §1
# [7] = target: Gal(a1-3)[Gal(a1-4)]Gal(b1-4)GlcNAc
# Outline: as §1
# [8] = target: Gal(a1-4)Gal(b1-3)GlcNAc(b1-2)Man(a1-3)[Gal(a1-4)Gal(b1-3)GlcNAc(b1-2)Man(a1-6)]Man(b1-4)GlcNAc(b1-4)GlcNAc
# Outline: as §1
# Gal(a1-4)Gal(b1-4)Glc = target: Gal(a1-4)Gal(b1-4)Glc
# Outline: as §1
# Gal(a1-4)Gal(b1-4)GlcNAc = target: Gal(a1-4)Gal(b1-4)GlcNAc
# Outline: as §1
# [9] = target: Gal(a1-4)Gal(b1-4)GlcNAc(b1-2)Man(a1-3)[Gal(a1-4)Gal(b1-4)GlcNAc(b1-2)Man(a1-6)]Man(b1-4)GlcNAc(b1-4)GlcNAc
# Outline: as §1
# [10] = target: Gal(a1-4)Gal(b1-4)GlcNAc(b1-3)Gal(b1-4)Glc
# Outline: as §1
# Gal(a1-4)GlcNAc = target: Gal(a1-4)GlcNAc
# Outline: as §1
# Gal(a1-6)Glc = target: Gal(a1-6)Glc
# Outline: as §1
# Gal(b1-2)Gal = target: Gal(b1-2)Gal
# Outline: as §1
# Gal(b1-3)Gal = target: Gal(b1-3)Gal
# Outline: as §1
# Gal(b1-3)Gal(b1-4)GlcNAc = target: Gal(b1-3)Gal(b1-4)GlcNAc
# Outline: as §1
# [11] = target: Gal(b1-3)Gal(b1-4)GlcNAc(b1-2)Man(a1-3)[Gal(b1-3)Gal(b1-4)GlcNAc(b1-2)Man(a1-6)]Man(b1-4)GlcNAc(b1-4)GlcNAc
# Outline: as §1
# Gal(b1-3)GalNAc = target: Gal(b1-3)GalNAc
# Outline: as §1
# [12] = target: Gal(b1-3)GalNAc(a1-3)[Fuc(a1-2)]Gal(b1-4)Glc
# Outline: as §1
# [13] = target: Gal(b1-3)GalNAc(a1-3)[Fuc(a1-2)]Gal(b1-4)GlcNAc
# Outline: as §1
# [14] = target: Gal(b1-3)GalNAc(b1-3)Gal(a1-4)Gal(b1-4)Glc
# Outline: as §1
# [15] = target: Gal(b1-3)GalNAc(b1-4)Gal(b1-4)Glc
# Outline: as §1
# [16] = target: Gal(b1-3)GalNAc(b1-4)[Neu5Ac(a2-3)]Gal(b1-4)Glc
# Outline: as §1
# Gal(b1-3)GlcNAc = target: Gal(b1-3)GlcNAc
# Outline: as §1
# [17] = target: Gal(b1-3)GlcNAc(a1-6)Gal(b1-4)GlcNAc
# Outline: as §1
# [18] = target: Gal(b1-3)GlcNAc(b1-2)Man(a1-3)[Gal(b1-3)GlcNAc(b1-2)Man(a1-6)]Man(b1-4)GlcNAc(b1-4)GlcNAc
# Outline: as §1
# [19] = target: Gal(b1-3)GlcNAc(b1-2)Man(a1-3)[Gal(b1-3)GlcNAc(b1-2)Man(a1-6)]Man(b1-4)GlcNAc(b1-4)[Fuc(a1-6)]GlcNAc
# Outline: as §1
# [20] = target: Gal(b1-3)GlcNAc(b1-2)[Gal(b1-3)GlcNAc(b1-6)]Man(a1-6)[Gal(b1-3)GlcNAc(b1-2)Man(a1-3)]Man(b1-4)GlcNAc(b1-4)GlcNAc
# Outline: as §1
# [21] = target: Gal(b1-3)GlcNAc(b1-3)Gal(b1-3)GlcNAc
# Outline: as §1
# [22] = target: Gal(b1-3)GlcNAc(b1-3)Gal(b1-4)Glc
# Outline: as §1
# [23] = target: Gal(b1-3)GlcNAc(b1-3)Gal(b1-4)GlcNAc
# Outline: as §1
# [24] = target: Gal(b1-3)GlcNAc(b1-3)Gal(b1-4)GlcNAc(b1-6)[Gal(b1-3)GlcNAc(b1-3)]Gal(b1-4)Glc
# Outline: as §1
# [25] = target: Gal(b1-3)GlcNAc(b1-3)Gal(b1-4)[Fuc(a1-3)]GlcNAc(b1-6)[Gal(b1-3)GlcNAc(b1-3)]Gal(b1-4)Glc
# Outline: as §1
# [26] = target: Gal(b1-3)GlcNAc(b1-3)GalNAc
# Outline: as §1
# [27] = target: Gal(b1-3)GlcNAc(b1-6)Gal(b1-4)GlcNAc
# Outline: as §1
# [28] = target: Gal(b1-3)[Fuc(a1-4)]GlcNAc
# Outline: as §1
# [29] = target: Gal(b1-3)[Fuc(a1-4)]GlcNAc(b1-2)Man(a1-3)[Gal(b1-3)[Fuc(a1-4)]GlcNAc(b1-2)Man(a1-6)]Man(b1-4)GlcNAc(b1-4)GlcNAc
# Outline: as §1
# [30] = target: Gal(b1-3)[Fuc(a1-4)]GlcNAc(b1-2)Man(a1-3)[Gal(b1-3)[Fuc(a1-4)]GlcNAc(b1-2)Man(a1-6)]Man(b1-4)GlcNAc(b1-4)[Fuc(a1-6)]GlcNAc
# Outline: as §1
# [31] = target: Gal(b1-3)[Fuc(a1-4)]GlcNAc(b1-3)Gal(b1-3)[Fuc(a1-4)]GlcNAc
# Outline: as §1
binder,measurement,setting,value
B1,glycan array binding signal (z-score),Gal(a1-3)Gal,0.448
same,glycan array binding signal (z-score),Gal(a1-3)Gal(b1-3)GlcNAc,1.52
same,glycan array binding signal (z-score),[1],0.335
same,glycan array binding signal (z-score),[2],-0.256
same,glycan array binding signal (z-score),[3],-0.202
same,glycan array binding signal (z-score),Gal(a1-3)Gal(b1-4)Glc,-0.204
same,glycan array binding signal (z-score),Gal(a1-3)Gal(b1-4)GlcNAc,-0.452
same,glycan array binding signal (z-score),[4],-0.409
same,glycan array binding signal (z-score),[5],-0.196
same,glycan array binding signal (z-score),[6],0.173
same,glycan array binding signal (z-score),Gal(a1-3)GalNAc,-0.238
same,glycan array binding signal (z-score),[7],0.162
same,glycan array binding signal (z-score),[8],-0.091
same,glycan array binding signal (z-score),Gal(a1-4)Gal(b1-4)Glc,-0.442
same,glycan array binding signal (z-score),Gal(a1-4)Gal(b1-4)GlcNAc,0.556
same,glycan array binding signal (z-score),[9],1.29
same,glycan array binding signal (z-score),[10],-0.505
same,glycan array binding signal (z-score),Gal(a1-4)GlcNAc,1.29
same,glycan array binding signal (z-score),Gal(a1-6)Glc,-0.405
same,glycan array binding signal (z-score),Gal(b1-2)Gal,-0.458
same,glycan array binding signal (z-score),Gal(b1-3)Gal,-0.422
same,glycan array binding signal (z-score),Gal(b1-3)Gal(b1-4)GlcNAc,2.24
same,glycan array binding signal (z-score),[11],1.78
same,glycan array binding signal (z-score),Gal(b1-3)GalNAc,0.146
same,glycan array binding signal (z-score),[12],-0.235
same,glycan array binding signal (z-score),[13],-0.06
same,glycan array binding signal (z-score),[14],0.095
same,glycan array binding signal (z-score),[15],-0.338
same,glycan array binding signal (z-score),[16],0.446
same,glycan array binding signal (z-score),Gal(b1-3)GlcNAc,1.14
same,glycan array binding signal (z-score),[17],-0.529
same,glycan array binding signal (z-score),[18],-0.233
same,glycan array binding signal (z-score),[19],-0.254
same,glycan array binding signal (z-score),[20],-0.174
same,glycan array binding signal (z-score),[21],-0.433
same,glycan array binding signal (z-score),[22],-0.1
same,glycan array binding signal (z-score),[23],-0.471
same,glycan array binding signal (z-score),[24],-0.037
same,glycan array binding signal (z-score),[25],2.22
same,glycan array binding signal (z-score),[26],-0.115
same,glycan array binding signal (z-score),[27],-0.308
same,glycan array binding signal (z-score),[28],-0.402
same,glycan array binding signal (z-score),[29],0.237
same,glycan array binding signal (z-score),[30],-0.2
same,glycan array binding signal (z-score),[31],-0.352
